The list shows a part of the results. The list includes weakly bound sequences.

In the experiment the target is MaxL homodimer (UniProt P61244). Briefly: universal protein-binding microarray (PBM). The note with it: PBS-based mixture, 10 nM His-tagged protein dimer, 2% milk, 200 ng/uL BSA, 50 ng/uL salmon testes DNA, 0.02% TX-100; detection with Alexa 488 anti-His …; high values mean tight binding; most listed sequences are background and not binding sites; double strand, one strand shown.
Sequence of UniProt P61244 (P61244 whole entry): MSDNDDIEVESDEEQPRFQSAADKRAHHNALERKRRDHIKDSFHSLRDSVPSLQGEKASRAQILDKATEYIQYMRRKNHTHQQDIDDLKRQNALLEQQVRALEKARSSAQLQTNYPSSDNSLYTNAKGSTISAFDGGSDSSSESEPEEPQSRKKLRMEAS
On to CGTCGAGA, for which the binding signal (normalized occupancy) came out at 0.0693.

For ATGGGGTA, the binding signal (normalized occupancy) worked out at 0.0853.

Turning to CTCCACAC, the binding signal (normalized occupancy) amounted to 0.0843.

CTCAGGGA: the binding signal (normalized occupancy) came out at 0.0699.

As for AAAGACCT, the binding signal (normalized occupancy) amounted to 0.0705.

As to AAGAATCA, the binding signal (normalized occupancy) came out at 0.0773.

Consider GCGATGGA, for which the binding signal (normalized occupancy) amounted to 0.0705.

Turning to CCTGAAAA, the binding signal (normalized occupancy) is 0.0734.

With AATGAATA, the binding signal (normalized occupancy) stood at 0.0826.

As for CAGGCTGG, the binding signal (normalized occupancy) is 0.074.

In the case of AACATGGC, the binding signal (normalized occupancy) came out at 0.0896.

As for CCGTATCA, the binding signal (normalized occupancy) was found to be 0.078.

TCTTGTCA: the binding signal (normalized occupancy) is 0.0763.

Take AGCTGCGC: the binding signal (normalized occupancy) is 0.0641.

For the sequence ACCCGTCA, the binding signal (normalized occupancy) worked out at 0.0779.

In the case of CAAGATCA, the binding signal (normalized occupancy) stood at 0.0787.

With ACTCAGCC, the binding signal (normalized occupancy) amounted to 0.074.

On to AGGGTGCA, for which the binding signal (normalized occupancy) worked out at 0.0789.

As for CTTACTTC, the binding signal (normalized occupancy) was found to be 0.0757.

AACGATAT: the binding signal (normalized occupancy) was 0.0816.

CCTAGACC: the binding signal (normalized occupancy) worked out at 0.0776.

As for CAACACAG, the binding signal (normalized occupancy) was 0.0749.

For AGGTTAGG, the binding signal (normalized occupancy) was 0.0789.

For GTCGGGAA, the binding signal (normalized occupancy) worked out at 0.0752.

On to AGCCGATG, for which the binding signal (normalized occupancy) was 0.0684.

Consider ACTACCTG, for which the binding signal (normalized occupancy) was determined as 0.0775.

ACGTTTTC: the binding signal (normalized occupancy) is 0.0866.

As for CGTGTCAC, the binding signal (normalized occupancy) was determined as 0.0878.

On to AGGGTATA, for which the binding signal (normalized occupancy) is 0.0798.

Turning to CCTGTAGA, the binding signal (normalized occupancy) came to 0.0762.

Take CTTGGGCA: the binding signal (normalized occupancy) stood at 0.0737.

For the sequence ATTCACTG, the binding signal (normalized occupancy) is 0.0715.

For the sequence TCTGGTCA, the binding signal (normalized occupancy) came to 0.0768.

Take AATCCGTG: the binding signal (normalized occupancy) came to 0.0806.

As for ACAAATCT, the binding signal (normalized occupancy) was 0.0773.

Turning to ACTACCAA, the binding signal (normalized occupancy) came out at 0.0694.

In the case of GCCTGTTA, the binding signal (normalized occupancy) came out at 0.0819.

Take GGACAGTA: the binding signal (normalized occupancy) came to 0.0732.

With CCTCAAGA, the binding signal (normalized occupancy) is 0.0746.

On to AATAGATG, for which the binding signal (normalized occupancy) was 0.0814.

For the sequence AAACAGGC, the binding signal (normalized occupancy) turned out to be 0.0748.

Turning to GCCTTCTA, the binding signal (normalized occupancy) is 0.0739.

In the case of AGTTTTGG, the binding signal (normalized occupancy) was 0.0712.

For CACTGGGA, the binding signal (normalized occupancy) was 0.0741.

Consider AAAAATTA, for which the binding signal (normalized occupancy) stood at 0.0712.

In the case of GAAAACTA, the binding signal (normalized occupancy) was 0.0775.

Turning to CATCAGGG, the binding signal (normalized occupancy) was 0.0741.

GGGCCGAC: the binding signal (normalized occupancy) was determined as 0.0683.

Turning to TAATCTGA, the binding signal (normalized occupancy) stood at 0.0743.

Turning to AGCGATAT, the binding signal (normalized occupancy) was found to be 0.0746.

Consider TAATGCGA, for which the binding signal (normalized occupancy) came to 0.0758.

Regarding GTGGCCCA, the binding signal (normalized occupancy) stood at 0.0744.

Turning to CATGGACG, the binding signal (normalized occupancy) turned out to be 0.0831.

In the case of CCTGTCCG, the binding signal (normalized occupancy) came to 0.0752.

On to CTATGAAA, for which the binding signal (normalized occupancy) stood at 0.0772.

In the case of AATATTCG, the binding signal (normalized occupancy) turned out to be 0.0729.

On to CGAACTTA, for which the binding signal (normalized occupancy) stood at 0.0707.

Consider CGTTGAGA, for which the binding signal (normalized occupancy) amounted to 0.0727.

For the sequence AAAACGAG, the binding signal (normalized occupancy) was determined as 0.0747.

Turning to TTAGACAA, the binding signal (normalized occupancy) came out at 0.079.

Turning to TAGCTAAA, the binding signal (normalized occupancy) was 0.0707.

Consider CCAAAAGG, for which the binding signal (normalized occupancy) amounted to 0.066.

For the sequence ACGGAAAT, the binding signal (normalized occupancy) came out at 0.0724.

As for CGTATCTA, the binding signal (normalized occupancy) is 0.0778.

For the sequence AAATTCAA, the binding signal (normalized occupancy) stood at 0.0737.

Take GAGAACGA: the binding signal (normalized occupancy) turned out to be 0.0782.

In the case of GAGTTAAC, the binding signal (normalized occupancy) came out at 0.0767.

With AAGCTCAA, the binding signal (normalized occupancy) amounted to 0.0689.

As for GAGCGCGA, the binding signal (normalized occupancy) is 0.0707.

As for AGGCAACA, the binding signal (normalized occupancy) was 0.0766.

For the sequence GTGTGCTA, the binding signal (normalized occupancy) was determined as 0.0884.

As to GCCAACGC, the binding signal (normalized occupancy) came to 0.0756.

Consider CTTTATCA, for which the binding signal (normalized occupancy) worked out at 0.0732.

For the sequence GATGCCCA, the binding signal (normalized occupancy) amounted to 0.0798.

With TCTGGGAA, the binding signal (normalized occupancy) is 0.0706.

With CTAACGCC, the binding signal (normalized occupancy) came to 0.0758.

In the case of CAGCGGGA, the binding signal (normalized occupancy) turned out to be 0.0676.

As for ATTAACAG, the binding signal (normalized occupancy) is 0.077.

As for CGCGAGCG, the binding signal (normalized occupancy) worked out at 0.073.

As for GCCAGCCA, the binding signal (normalized occupancy) amounted to 0.0754.

For CACGGACG, the binding signal (normalized occupancy) came out at 0.0738.

As for CGTCTGTC, the binding signal (normalized occupancy) was found to be 0.0743.

For the sequence GATTTAAC, the binding signal (normalized occupancy) is 0.0749.

As to CCCGCCCG, the binding signal (normalized occupancy) amounted to 0.0736.

For AGCGGCCT, the binding signal (normalized occupancy) stood at 0.0637.

For the sequence ACATGCCC, the binding signal (normalized occupancy) was 0.099.

Take ACCAGCCG: the binding signal (normalized occupancy) came to 0.0682.

CTGCATTC: the binding signal (normalized occupancy) amounted to 0.0735.

For the sequence GTTTACGA, the binding signal (normalized occupancy) worked out at 0.0775.

Regarding AAGACAAA, the binding signal (normalized occupancy) amounted to 0.0719.

For AGAAGACA, the binding signal (normalized occupancy) is 0.0717.

As for ATCTTGCA, the binding signal (normalized occupancy) came out at 0.0764.

Turning to GAGATGTA, the binding signal (normalized occupancy) was 0.082.

Consider ACATAATC, for which the binding signal (normalized occupancy) was found to be 0.0854.

Consider CTAGACAA, for which the binding signal (normalized occupancy) was 0.0707.

Take AACGGCCT: the binding signal (normalized occupancy) was found to be 0.0683.

AGGATCAG: the binding signal (normalized occupancy) was 0.0761.

Regarding AAATTGAA, the binding signal (normalized occupancy) was determined as 0.0797.

On to ATTCGATG, for which the binding signal (normalized occupancy) worked out at 0.0756.

For the sequence CAAGCAAG, the binding signal (normalized occupancy) stood at 0.0683.

Regarding AGAAGTTC, the binding signal (normalized occupancy) was 0.0713.

Regarding ATACTAGG, the binding signal (normalized occupancy) turned out to be 0.0737.

Regarding ACGTGCGG, the binding signal (normalized occupancy) amounted to 0.0927.

For the sequence CTGTTCAA, the binding signal (normalized occupancy) is 0.0728.

With GGCTACGA, the binding signal (normalized occupancy) was 0.0741.

Take AATCACCG: the binding signal (normalized occupancy) was determined as 0.0745.

Regarding TCAGACAA, the binding signal (normalized occupancy) turned out to be 0.0792.

Take AGCATTAA: the binding signal (normalized occupancy) was determined as 0.0798.

Turning to TGCCTAAA, the binding signal (normalized occupancy) is 0.0754.

CCCTTACC: the binding signal (normalized occupancy) was determined as 0.0812.

Values taken from PMC4242493.
